Some of the results follow.

The subject of the experiment is PfHDP1 homeodomain (GST-tagged). Briefly: gcPBM binding intensity (ln(normalized median fluorescence intensity)); higher = stronger DNA binding. The essentials: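 Binding intensity values are the highest Masliner-normalised natural-log median intensity among replicate spots of either probe orientation. The binding step lasted 1 h in 1× PBS with 1% milk, 0.2 mg/ml BSA, 0.5% salmon testes DNA and 0.03% Triton X-100, using GST-tagged P. falciparum DNA-binding domains expressed in E. coli on an Agilent 4 × 180k array of primer-extended double-stranded 36-bp intergenic genomic probes plus negative controls. Alexa488 anti-GST antibody and a 488 nm scan detected bound protein.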
On to “TACATGTATAAATAAGCACACATGTGGATATGTACA [CACACA_site93]”, for which the “gcPBM binding intensity (ln)” value is 6.64.
Then “ACTTATATATTATGTTGTCCGTCCATTCTCTTTATC [XGTACX_site3769]”, with 6.96; and “AATTTTATTTAATTTTTTTGGGAAATGATAAAATTT [CACACA_negctrl_site934]”, with 5.8.
For “ACGTGTGATTATAATTGTACTTTAATGTAAGAATGA [XGTACX_site1109]”, the “gcPBM binding intensity (ln)” value came out at 6.53.
For “ATATATATATATATATGTACTTATAATAATATTCAA [XGTACX_site2593]”, the “gcPBM binding intensity (ln)” value amounted to 9.32.
With “ATCTTTCCTATTTGTAGTACAAAAAAAAAAAAAAAA [XGTACX_site5485]” the figure was 6.37; with “TATTGTCTATAATAAACACACAATATTAAAAATATA [CACACA_site6624]”, 6.19; with “TTAAATGATGTAAACACACACATATACATTATTATA [CACACA_site3162]”, 6.53.
With “TTTTATAAGGTGAAAAGTACATATAACTTATTTTAC [XGTACX_site5572]” the figure was 6.39.
Then “AAAAAAAAAAAAAAAACACACATACATACATACATA [CACACA_site6125]”, with 6.8; and “AGAAAAGTGATATATACACACTTATATTTATTTATA [CACACA_site7350]”, with 6.26; and “TTTTTTTTTTTTTTTGCACACACCATATTTATAGAA [CACACA_site3310]”, with 8.81.
As to “TATTGTTACTTTATATGTACTAATTAAACATATACA [XGTACX_site6363]”, the “gcPBM binding intensity (ln)” value was 6.5.
As to “TTGTATTATATTGTATTATGTTTAAATGAAAAAAAA [CACACA_negctrl_site662]”, the “gcPBM binding intensity (ln)” value was 6.46.
Then “AAAAAAAAAAAAAAAAGTACACAAATTTTAAAAATT [XGTACX_site3006]”, with 6.33; and “AAAAATACCTTATATATACACACTATGTTTTTCTTT [CACACA_site1192]”, with 6.59; and “AAATATTAGTAACACAGACACACAAAAAAAAAAAAA [CACACA_site2175]”, with 6.17.
With “CAAAAGAAGGTAAACACACACACACGCATACAAAAA [CACACA_site7724]”, the “gcPBM binding intensity (ln)” value was 6.78.
With “ATTTCTCTATCGTAATGTACATAAAAAATGAAAAAA [XGTACX_site1201]” the figure was 6.8; with “CAAAACCTTATATGTACACACATATACATCACCCTT [CACACA_site3170]”, 6.6.
“ATAGAATAAAACTATACACACCTATATTTAAACATA [CACACA_site5106]”: the “gcPBM binding intensity (ln)” value came out at 6.62.
With “TGTTTATTTTTAAAAAGTACATATTTAAAAAACTTC [XGTACX_site271]” the figure was 6.26.
For the sequence “TTTTCTAAATAAATAGTGCATTTATTATATATACAT [GTGCAC_site9766]”, the “gcPBM binding intensity (ln)” value is 8.43.
With “TGATCAGATAGACACACACACAAAAAAAAAAAAAAA [CACACA_site7805]” the figure was 6.4.
Take “AAATGAATAAATAAGACACACACGAAAATAAGTAAA [CACACA_site71]”: the “gcPBM binding intensity (ln)” value is 7.1.
On to “AAATATATATATATATATATATATATATATATATAT [CACACA_negctrl_site677]”, for which the “gcPBM binding intensity (ln)” value came to 9.37.
As for “AATTACTACATAAATACATGCATAATTATATATATA [TGCATGCA_site783]”, the “gcPBM binding intensity (ln)” value stood at 7.15.
On to “TATCTCTTCATATTGTGTACATATTTTTATTTATTG [XGTACX_site4038]”, for which the “gcPBM binding intensity (ln)” value came out at 7.33.
As to “ATAAAATATAAAAATTGTACGATAATAATAGTAGGA [XGTACX_site8951]”, the “gcPBM binding intensity (ln)” value worked out at 6.48.
On to “AACACTTCTTATTTATGTACTTAATTCCCAACGGAA [XGTACX_site4818]”, for which the “gcPBM binding intensity (ln)” value was 6.89.
As to “CATAATACATATAACACACACAATTATACATAAAAT [CACACA_site3233]”, the “gcPBM binding intensity (ln)” value came out at 6.82.
Then “AAAAAAAAAAAACACACACACACACCCAAATATATA [CACACA_site150]”, with 6.84.
With “TATATTAAACTTTGCACACATAATTTAACTACAAAG [CACACA_site3441]” the figure was 10.5; with “AATCATTTATTGATGGTGCAATATACCATCTAATGA [GTGCAC_site9440]”, 9.92.
With “AAAAAAAAAAAAAAAAAAAAAAAAAAAATACGAAAG [GTGCAC_negctrl_site729]” the figure was 7.21.
As to “ATATATATATATATATGTACTTAAAAAATATATACA [XGTACX_site8952]”, the “gcPBM binding intensity (ln)” value stood at 9.4.
Then “TATTTTTTTTGTGTGTGTCCTCATGTAATACTGCAA [XGTACX_site1380]”, with 7.01; and “CTTTTTAATTAATACACACACACACGGATATAAATA [CACACA_site7145]”, with 7.07.
Consider “ATATTATTTATGTATGCATGCGGCGAAATGGGCTTG [TGCATGCA_site28]”, for which the “gcPBM binding intensity (ln)” value turned out to be 6.74.
Then “AATGGGTTACACATATGTACATAAAATATAAAAAAT [XGTACX_site3440]”, with 6.96; and “TCTCATTTTCCCTAAAAAAAAAAATAAATAAAAATA [TGCATGCA_negctrl_site580]”, with 6.5.
For the sequence “TTTTTCCATATTGTAGCATGCAGTATATATATCATG [TGCATGCA_site530]”, the “gcPBM binding intensity (ln)” value turned out to be 6.86.
Regarding “TAAAAATGGAAACACACACACATAAATATATTTTAT [CACACA_site2513]”, the “gcPBM binding intensity (ln)” value is 6.97.
In the case of “ATTTCTATAAAAATAATCTACATTTTTTTTTTTTTT [CACACA_negctrl_site917]”, the “gcPBM binding intensity (ln)” value came out at 6.03.
Then “TAACCACAATTTTAATGTACATATATATTTATATAT [XGTACX_site8968]”, with 6.42; and “TATATACATATATATATATGTATAGATAGATACATT [CACACA_negctrl_site1511]”, with 6.5.
Then “AATATTTTACAATACACATGCAAATAATATTCTAAA [TGCATGCA_site618]”, with 6.92; and “TTTTGAAAAAATTTTTATAAAAGAATAAAATTATTA [XGTACX_negctrl_site570]”, with 6.06; and “TTTTTTTACAACATTACACACAAATATTCTGGGTTA [CACACA_site3755]”, with 6.99.
For the sequence “AATATTATATTAAAATGTACAAAAATGAATTACTTT [XGTACX_site1473]”, the “gcPBM binding intensity (ln)” value worked out at 6.47.
Then “CAATGCAAGGCTTAAAAAAATGGGCATATTATATAT [GTGCAC_negctrl_site304]”, with 6.38; and “ATTTATATATAAATGTGTACATATATATATATAAAC [XGTACX_site7592]”, with 6.78; and “ATTGTAAGTAAACACACACACATATATCTGTATTTA [CACACA_site4542]”, with 6.58.
With “TACCATGTTCAAATTACACACATATAATGCAATATA [CACACA_site7034]” the figure was 7.36; with “CTGAAATTAACAAAAGTGCATAAAAATAAAAAATAT [GTGCAC_site9652]”, 8.5; with TCACATTTTGGACACGTGCACATATATTTGATACAT, 9.58.

The record behind these values is the supplement of paper PMC11417369.
